According to PMC12425082:
These are yes or no findings as the source states them, for the method shown. Binding seen in cells or lysates may run through a third protein. Some binding calls cover weakened binding; strength is not graded here. Tags and fused reporters may be left off the sequences shown.

Protein sequences, listed by entry. Tags and fused reporters are not part of them.
UniProt Q9Y4G2: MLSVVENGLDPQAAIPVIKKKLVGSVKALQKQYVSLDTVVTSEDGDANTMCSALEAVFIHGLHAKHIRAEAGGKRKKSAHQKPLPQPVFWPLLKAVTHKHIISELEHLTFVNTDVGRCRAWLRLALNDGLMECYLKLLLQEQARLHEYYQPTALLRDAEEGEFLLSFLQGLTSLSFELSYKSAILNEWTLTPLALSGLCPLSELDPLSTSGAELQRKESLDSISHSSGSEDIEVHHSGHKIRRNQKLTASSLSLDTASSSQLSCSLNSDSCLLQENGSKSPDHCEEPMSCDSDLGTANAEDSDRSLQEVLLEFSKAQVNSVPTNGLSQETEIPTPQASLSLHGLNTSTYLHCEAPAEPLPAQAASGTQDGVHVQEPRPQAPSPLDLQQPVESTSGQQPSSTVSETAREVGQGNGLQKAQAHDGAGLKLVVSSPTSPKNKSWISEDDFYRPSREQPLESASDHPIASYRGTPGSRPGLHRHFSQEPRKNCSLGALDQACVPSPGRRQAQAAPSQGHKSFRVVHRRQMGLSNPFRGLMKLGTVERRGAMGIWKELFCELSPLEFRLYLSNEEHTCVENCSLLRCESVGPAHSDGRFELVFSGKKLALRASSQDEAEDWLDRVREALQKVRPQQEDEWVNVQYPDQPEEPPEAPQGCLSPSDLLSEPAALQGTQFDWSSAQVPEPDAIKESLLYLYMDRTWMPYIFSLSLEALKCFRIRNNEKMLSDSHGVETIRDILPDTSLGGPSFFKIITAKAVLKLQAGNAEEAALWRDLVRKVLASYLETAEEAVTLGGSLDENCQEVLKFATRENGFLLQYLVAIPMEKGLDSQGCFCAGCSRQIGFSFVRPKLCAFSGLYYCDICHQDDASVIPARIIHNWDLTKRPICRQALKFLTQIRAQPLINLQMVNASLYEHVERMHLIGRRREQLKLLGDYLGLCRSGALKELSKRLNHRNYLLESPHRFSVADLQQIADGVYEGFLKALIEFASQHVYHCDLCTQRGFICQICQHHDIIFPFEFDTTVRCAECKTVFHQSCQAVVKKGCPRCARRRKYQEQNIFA
UniProt P56962: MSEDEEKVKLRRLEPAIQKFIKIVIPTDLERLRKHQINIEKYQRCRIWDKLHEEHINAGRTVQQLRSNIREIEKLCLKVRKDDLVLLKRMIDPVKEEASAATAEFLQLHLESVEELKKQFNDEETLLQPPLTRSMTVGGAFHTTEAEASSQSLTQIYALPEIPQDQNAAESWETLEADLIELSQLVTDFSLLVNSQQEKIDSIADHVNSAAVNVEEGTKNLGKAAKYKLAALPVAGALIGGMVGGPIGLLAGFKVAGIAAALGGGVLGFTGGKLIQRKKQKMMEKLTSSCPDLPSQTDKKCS
UniProt P63027: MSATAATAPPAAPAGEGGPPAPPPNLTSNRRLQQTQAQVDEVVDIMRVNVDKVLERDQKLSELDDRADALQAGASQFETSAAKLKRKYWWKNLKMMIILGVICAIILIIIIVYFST
UniProt Q15836: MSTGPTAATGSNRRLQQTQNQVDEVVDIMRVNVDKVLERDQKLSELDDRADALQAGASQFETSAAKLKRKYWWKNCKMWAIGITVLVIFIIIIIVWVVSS

Target: T1, GFP-tagged Munc13-4 (UniProt Q70J99)
T1 sequence: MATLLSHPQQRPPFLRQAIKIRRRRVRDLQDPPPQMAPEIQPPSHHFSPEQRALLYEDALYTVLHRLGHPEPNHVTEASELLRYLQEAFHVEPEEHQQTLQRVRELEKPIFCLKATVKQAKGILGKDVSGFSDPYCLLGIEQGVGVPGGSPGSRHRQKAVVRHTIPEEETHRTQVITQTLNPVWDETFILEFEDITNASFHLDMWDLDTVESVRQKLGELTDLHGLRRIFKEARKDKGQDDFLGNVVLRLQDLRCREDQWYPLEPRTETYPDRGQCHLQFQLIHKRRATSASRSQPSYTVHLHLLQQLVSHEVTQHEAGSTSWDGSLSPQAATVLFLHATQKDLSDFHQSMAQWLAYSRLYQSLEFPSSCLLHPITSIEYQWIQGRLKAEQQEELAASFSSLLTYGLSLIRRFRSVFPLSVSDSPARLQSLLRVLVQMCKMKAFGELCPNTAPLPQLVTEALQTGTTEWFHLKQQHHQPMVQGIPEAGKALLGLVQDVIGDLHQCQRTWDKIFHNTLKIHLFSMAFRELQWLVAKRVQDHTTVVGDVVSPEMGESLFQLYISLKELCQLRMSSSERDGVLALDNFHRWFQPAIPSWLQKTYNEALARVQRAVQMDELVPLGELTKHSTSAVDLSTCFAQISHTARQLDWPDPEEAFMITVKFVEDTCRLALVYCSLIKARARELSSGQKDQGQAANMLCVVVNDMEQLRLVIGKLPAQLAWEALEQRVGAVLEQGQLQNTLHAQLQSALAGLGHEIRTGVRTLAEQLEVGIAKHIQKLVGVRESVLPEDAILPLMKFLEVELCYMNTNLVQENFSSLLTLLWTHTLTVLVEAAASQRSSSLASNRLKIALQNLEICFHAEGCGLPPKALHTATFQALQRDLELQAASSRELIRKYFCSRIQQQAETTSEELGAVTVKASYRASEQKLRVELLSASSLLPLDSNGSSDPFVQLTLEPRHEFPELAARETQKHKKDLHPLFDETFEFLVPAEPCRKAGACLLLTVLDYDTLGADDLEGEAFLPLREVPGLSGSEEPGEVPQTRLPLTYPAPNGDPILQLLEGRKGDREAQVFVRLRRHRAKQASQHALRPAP
Assay: co-IP; lysates of BON cells expressing GFP or GFP-Munc13-4 precipitated with GFP nanobodies; western blotting of the pull-downs with antibodies to the partners

Substance | binding
PLEKHM1 (from UniProt Q9Y4G2 1-1056) | binds
STX17 (from UniProt P56962 1-302) | no binding
VAMP2 (vesicle-associated membrane protein 2) (from UniProt P63027 1-116) | binds
VAMP3 (from UniProt Q15836 1-100) | no binding
